Among all 310,000 compounds or so, about 2,200 (0.71%) showed an effect of 50% or more. The effect is printed as a negative number. The list shows a part of the results.
target: human ether-à-go-go-related gene (hERG) potassium channel (human, UniProt Q12809); assay: primary screen, population patch clamp on CHO cells stably expressing hERG
Sequence (Q12809 whole entry, looked up): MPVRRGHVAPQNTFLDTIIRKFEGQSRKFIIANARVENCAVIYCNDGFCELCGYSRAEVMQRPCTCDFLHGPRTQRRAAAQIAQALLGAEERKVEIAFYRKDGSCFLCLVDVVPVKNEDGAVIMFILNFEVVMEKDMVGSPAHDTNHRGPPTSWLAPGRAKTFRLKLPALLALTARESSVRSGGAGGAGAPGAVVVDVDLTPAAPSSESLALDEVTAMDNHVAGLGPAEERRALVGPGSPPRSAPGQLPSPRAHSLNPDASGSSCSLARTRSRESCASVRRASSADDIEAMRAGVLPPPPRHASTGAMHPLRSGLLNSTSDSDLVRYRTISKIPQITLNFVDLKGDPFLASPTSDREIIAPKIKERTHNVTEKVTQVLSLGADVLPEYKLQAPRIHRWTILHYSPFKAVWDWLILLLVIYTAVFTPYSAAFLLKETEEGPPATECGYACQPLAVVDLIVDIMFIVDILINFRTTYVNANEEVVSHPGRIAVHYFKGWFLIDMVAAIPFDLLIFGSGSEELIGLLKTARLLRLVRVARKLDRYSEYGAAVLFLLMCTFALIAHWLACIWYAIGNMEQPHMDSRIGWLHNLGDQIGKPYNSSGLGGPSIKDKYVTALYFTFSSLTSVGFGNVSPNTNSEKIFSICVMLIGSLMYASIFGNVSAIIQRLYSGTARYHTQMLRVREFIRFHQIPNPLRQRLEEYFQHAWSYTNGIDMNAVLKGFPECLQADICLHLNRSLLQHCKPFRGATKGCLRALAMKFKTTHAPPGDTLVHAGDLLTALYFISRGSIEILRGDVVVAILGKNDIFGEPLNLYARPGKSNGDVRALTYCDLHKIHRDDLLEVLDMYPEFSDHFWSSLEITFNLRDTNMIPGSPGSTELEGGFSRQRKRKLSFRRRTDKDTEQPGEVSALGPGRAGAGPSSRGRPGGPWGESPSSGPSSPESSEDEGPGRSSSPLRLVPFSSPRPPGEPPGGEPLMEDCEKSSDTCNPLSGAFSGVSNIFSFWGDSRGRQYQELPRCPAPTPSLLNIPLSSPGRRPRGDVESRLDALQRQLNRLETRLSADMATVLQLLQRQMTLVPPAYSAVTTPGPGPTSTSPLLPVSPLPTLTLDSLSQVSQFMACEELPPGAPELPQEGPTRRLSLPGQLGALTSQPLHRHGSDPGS

SMILES | hERG current change (%, negative = inhibition) at 1uM [%]
Cc1ccc(-c2nc(C)sc2CC(=O)OCC(=O)Nc2ccc(F)c(Cl)c2)cc1 | 4.59
CCOCCc1nnc(NC(=O)Cc2ccccc2)s1 | 6.58
CCOc1ccccc1-c1noc(CCC(=O)Nc2cccnc2)n1 | 4.72
Cc1nn(Cc2ccccc2)c(N)c1C#N | 8.66
CCCCNc1nc2c(c(=O)n(C)c(=O)n2C)n1CCC | 15.3
CC(=O)NCc1ccc(-c2csc(-c3cccs3)n2)cc1 | 0.835
CCN(Cc1ccccc1)C(=O)CN1C(=O)c2ccccc2S1(=O)=O | 3.6
CN(C)/C=C/C(=O)/C=C/c1ccc(Cl)cc1Cl | 5.3
COc1ccc(Cl)cc1NC(=O)CCNS(=O)(=O)c1cccc2nonc12 | 11.8
O=c1cc(-c2ccccc2)nc(N2CCCCC2)[nH]1 | 5.54
CN(C)S(=O)(=O)c1ccc2nc(NC(=O)c3cccs3)sc2c1 | 1.11
Cc1nnc(-c2cnn(-c3ccccc3)c2N)n1Cc1ccc(F)cc1 | -4.86
CC(C)CCN(C(=S)Nc1cccc(C(F)(F)F)c1)C(C)c1ccccn1 (stereo not shown) | 10.7
Cc1nn(-c2ccccc2)c(Cl)c1/C=N/Nc1ccc(S(=O)(=O)Nc2ccccc2C(=O)O)cc1[N+](=O)[O-] | 5.98
CSc1nc(-c2ccc(C)cc2)nc(N)c1C#N | 16.3
O=C(CN1CCN(S(=O)(=O)c2cccc(F)c2)CC1)NCC1(N2CCOCC2)CCCCC1 | 3.95
Cc1ccc(C(C(=O)NCC2CCCO2)N(Cc2ccccc2)C(=O)c2ccc(-c3ccccc3)[nH]2)o1 (stereo not shown) | 6.96
C#CCOCCOCCOCCNc1nc(N2CCN(C(=O)[C@H](Cc3ccc(O)cc3)n3cc([C@@H](N)C(C)CC)nn3)CC2)nc(N2CCN(C(=O)[C@H](CCCCN)n3cc([C@@H](N)CC(C)C)nn3)CC2)n1.Cl (stereo partly shown) | 9.13
CCCN(CCC)C(=O)c1ccc2nc(-c3ccc(OC)c(OC)c3)c(-c3ccc(OC)c(OC)c3)nc2c1 | 3.73
c1ccc(-c2nnc3n2CCCC3)cc1 | 8.13
Cc1cccc(NC(=O)COc2cccc3c2CCN(C)C3=O)c1 | 8.69
Oc1ccc(/C=N/Nc2cccc(Cl)n2)c(O)c1 | 12.7

SMILES | hERG current change (%, negative = inhibition) at 1uM [%]
CCOc1ccc(CCNC(=O)c2ccccc2OCc2c(C)noc2C)cc1OCC | -0.854
CCc1ccc2c(c1)C(C)=CC(C)(C)N2 | 12.1
CC(=NCc1ccc2c(c1)OCO2)C1=C(O)c2ccccc2C1=O | 9.87
CC(C(=O)N1CCc2ccccc21)n1cccc1 (stereo not shown) | 13.6
O=C(NN1C(=O)/C(=C\c2cccnc2)SC1=S)c1ccco1 | 6.88
Cc1ccc2c(c1Cl)NC(C(=O)O)C1CC(Sc3ccccc3[N+](=O)[O-])C(Cl)C21 (stereo not shown) | -3.46
Cc1cc(N2C(=O)C(O)=C(C(=O)c3cc4ccccc4o3)C2c2cccs2)no1 (stereo not shown) | 18.8
COc1ccccc1CNC(=O)C(C)Sc1ccc(C)cc1 (stereo not shown) | 7.45
c1ccc2c(OCCCCN3CCCC3)cccc2c1 | 10.3
COc1ccc(C(=O)NCCNc2ccc([N+](=O)[O-])cc2)cc1OC | 6.29
COc1ccc(Sc2ccc(/C=C3\C(=O)NN(c4ccccc4)C3=O)o2)cc1 | 9.78
CCn1nc(C)c(CNCc2cn[nH]c2-c2cc3ccccc3o2)c1C | 24.1
O=C(NCCc1ccccc1)C1CCN(C2CCN(Cc3ccco3)CC2)CC1 | -25.2
O=C(O)c1ccc(N/C(=N\S(=O)(=O)c2ccc(Cl)cc2)c2ccccc2)cc1 | 1.79
CCCOc1ccc(-c2nnc(-c3ccco3)o2)cc1 | 6.67
COc1ccccc1CN1[C@@H](CC(C)=O)c2cc(C(F)(F)F)ccc2S1(=O)=O | 8.57
Cc1ccc(C(=O)N(C)CC(=O)Nc2cccc(C)c2C)o1 | 8.8
Cc1noc(C)c1COc1ccc(C(=O)O)cc1 | 16.5
Cc1nn(-c2ccccc2)c(C)c1NC(=O)COC(=O)C1CC(=O)N(CCc2ccccc2)C1 (stereo not shown) | 9.5
C/C(CC(=O)NCc1ccco1)=N\NC(=O)Cc1ccccc1 | 12.5
CCOC(=O)C1(CC2CCCCO2)CCN(Cc2nccn2-c2cccc(C)c2)CC1 (stereo not shown) | -1.48
C=CCNC(=S)NNC(=O)c1csc(C)c1CC | 4.18

SMILES | hERG current change (%, negative = inhibition) at 1uM [%]
CCOC(=O)c1sc(=NC(=O)C2CC2)n(C)c1C | 4.22
Cc1cccc(NC2=CC(=O)CC(C)(C)C2)c1C | 12
CC(C)[C@H](NC(N)=O)C(=O)NNC(=O)COc1cccc(C(F)(F)F)c1 | 6.49
Cc1onc(-c2c(Cl)cccc2Cl)c1C(=O)N1CCSCC1 | -2.27
CCc1ccc(N(CC(=O)Nc2nc3ccc(C)cc3s2)S(=O)(=O)c2c(C)noc2C)cc1 | 7.99
COc1ccc(CN2CCOCCOCCOCCOCCOCC2)cc1 | 7.46
COc1cc(OC)cc(C(=O)OCC(=O)NC(C)CCc2ccccc2)c1 (stereo not shown) | 18.2
CCCc1cc(N2CCOCC2)n2ncc(-c3ccccc3)c2n1 | 14.7
CCOC(=O)C1=C(O)/C(=C/c2ccc(OCC(=O)O)c(OC)c2)SC1=Nc1ccc(OCC)cc1 | 5.5
O=S1(=O)NC(c2ccccc2)CC(CC2CCCCC2)O1 (stereo not shown) | -3.18
CC(=O)Nc1ccc2c(c1)C(=O)c1ccccc1C2=O | 16.3
COc1ccc(-c2nn(-c3ccccc3)cc2/C=N/O)cc1 | 14.2
COC(=O)[C@@]1(Cc2ccc(F)cc2)[C@H]2c3cc(C(=O)N(C)C)n(Cc4ccc(OC)c(OC)c4)c3C[C@H]2CN1C(=O)c1ccccc1 | 12.4
CCN(c1ccccc1)S(=O)(=O)c1ccc2[nH]c(=O)[nH]c2c1 | 8.82
CC(C)c1ccc(CNC(=O)C(=O)NCC2CCCO2)cc1 (stereo not shown) | 8.65
COc1cccc(/C=N/NC(=O)CC(=O)NCCc2ccc(OC)c(OC)c2)c1 | -0.183
COc1ccc(C(=O)C2CCCN(C(=O)C3CCOCC3)C2)c(C)c1 (stereo not shown) | 21.3
O=C(N/N=C/c1c(F)cccc1Cl)C(=O)N1CCCCCC1 | 14.4
CCOC(=O)c1cc(-c2ccccc2C)nn1Cc1cc(CC)no1 | 7.04
CCn1c2ccccc2c2cnc(N=CN(C)C)c(C#N)c21 | 9
CC1(C)CC(=O)C(CS(=O)(=O)c2ccccc2)=C(Cl)C1 | 8.32
Cc1nn(CCCC(=O)NCc2ccc(F)cc2)c(C)c1[N+](=O)[O-] | -6

SMILES | hERG current change (%, negative = inhibition) at 1uM [%]
Cc1ccccc1OCc1n[nH]c(=S)n1Cc1ccccc1 | 13.3
Cc1cccc(NC(=S)Nc2cccc(C)n2)n1 | 6.22
COCc1cc(C)nc(OCC(=O)N/N=C/c2ccc(-c3cc([N+](=O)[O-])ccc3Cl)o2)c1C#N | 6.66
Cc1cc(NC(=O)CCC(=O)N(CCC(C)C)C(C(=O)NCC2CCCO2)c2ccccc2C)no1 (stereo not shown) | 12
COc1ccc(Nc2cccccc2=O)cc1 | 5.53
CN(C)c1ccc(/C=N/Nc2cccc(C(=O)O)c2)cc1 | 19.1
Cc1nc(/C=C\C(=O)O)c2cc(C)oc2n1 | 13
CCOC(=O)CSc1ncnc2c1sc1nc(N3CCOCC3)c3c(c12)CCCC3 | 21.5
CC(=O)c1c(C)[nH]c(C(=O)OCC(=O)Nc2nnc(-c3ccccc3)o2)c1C | 12.1
O=C(Cn1nc(-c2ccccc2)nc1-c1ccccc1)OC1CCCCC1 | 12.7
CN1C(=O)C2C=CC1C1C(=O)N(c3ccccc3)C(=O)C21 (stereo not shown) | 17.1
CCN1C(=O)c2ccc(C(=O)O)cc2C1=O | 11.5
O=C(Cn1nnc2ccccc2c1=O)Nc1ccc(S(=O)(=O)N2CCOCC2)cc1 | 4.48
Cc1cc(C(=O)COC(=O)c2ccc(CO)cc2)c(C)n1CC1COc2ccccc2O1 (stereo not shown) | -6.58
Cc1ccc(NC(=O)CCC(=O)c2ccc(Cl)s2)nc1 | 8.77
CC(C)c1ccc(NC2CCCN(C(=O)c3cccs3)C2)cc1 (stereo not shown) | 7.21
COCCn1c(N)c(Sc2ccc(Cl)cc2)c(=O)[nH]c1=O | 9.92
N#CCCN(CCC#N)S(=O)(=O)c1ccc(C(=O)Nc2nc(-c3ccccc3)c(C(=O)c3ccccc3)s2)cc1 | 3.88
O=C(C1CCN(S(=O)(=O)c2cccnc2)CC1)N1CCN(c2ccc(Cl)cc2)CC1 | -10.6
CC(C)CC(NC(N)=O)C(=O)Nc1ccc(Cl)c(Cl)c1 (stereo not shown) | 8.31
O=c1[nH]c2cc([N+](=O)[O-])c(NCCO)c([N+](=O)[O-])c2[nH]1 | 9.99
COc1ccccc1S(=O)(=O)Cc1ccc(C(=O)NC2CCCCC2)o1 | 1.87

Reference: PMC4336329 (PLoS ONE, 2015)
